The supplement of paper PMC8728848
The list shows a part of the results.

Tests used:
Assay in all cases: glycan array binding signal (z-score within array); higher = stronger binding
Conditions in all cases: glycan notation: IUPAC condensed, linker removed
[1] = target: Neu5Ac(a2-3)Gal(b1-4)GlcNAc(b1-2)Man(a1-3)[GlcNAc(b1-2)Man(b1-4)GlcNAc(b1-2)Man(a1-6)]Man(b1-4)GlcNAc(b1-4)GlcNAc
In short: (§1)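 Glycan array binding is given as a within-array Z-score, which can be read as non-binding when negative. The arrays, 3228 of them, came from the Consortium for Functional Glycomics database and were retained only where the protein sequence was available. Z-scores were averaged across arrays of the same protein sequence at different concentrations or buffers and across linkers.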

[2] = target: Neu5Ac(a2-3)Gal(b1-4)GlcNAc(b1-2)Man(a1-3)[Neu5Ac(a2-6)Gal(b1-4)GlcNAc(b1-2)Man(a1-6)]Man(b1-4)GlcNAc(b1-4)GlcNAc
In short: as §1

[3] = target: Neu5Ac(a2-3)Gal(b1-4)GlcNAc(b1-3)Gal
In short: as §1

[4] = target: Neu5Ac(a2-3)Gal(b1-4)GlcNAc(b1-3)Gal(b1-3)GlcNAc
In short: as §1

[5] = target: Neu5Ac(a2-3)Gal(b1-4)GlcNAc(b1-3)Gal(b1-4)GlcNAc
In short: as §1

[6] = target: Neu5Ac(a2-3)Gal(b1-4)GlcNAc(b1-3)Gal(b1-4)GlcNAc(b1-3)Gal(b1-4)GlcNAc
In short: as §1

[7] = target: Neu5Ac(a2-3)Gal(b1-4)GlcNAc(b1-3)Gal(b1-4)[Fuc(a1-3)]GlcNAc
In short: as §1

[8] = target: Neu5Ac(a2-3)Gal(b1-4)GlcNAc(b1-3)GalNAc
In short: as §1

[9] = target: Neu5Ac(a2-3)Gal(b1-4)GlcNAc(b1-6)[Gal(b1-3)]GalNAc
In short: as §1

[10] = target: Neu5Ac(a2-3)Gal(b1-4)GlcNAc(b1-6)[Neu5Ac(a2-3)Gal(b1-3)]GalNAc
In short: as §1

[11] = target: Neu5Ac(a2-3)Gal(b1-4)GlcNAc6S
In short: as §1

[12] = target: Neu5Ac(a2-3)Gal(b1-4)[Fuc(a1-3)]GlcNAc
In short: as §1

[13] = target: Neu5Ac(a2-3)Gal(b1-4)[Fuc(a1-3)]GlcNAc(b1-3)Gal
In short: as §1

[14] = target: Neu5Ac(a2-3)Gal(b1-4)[Fuc(a1-3)]GlcNAc(b1-3)Gal(b1-4)GlcNAc
In short: as §1

[15] = target: Neu5Ac(a2-3)Gal(b1-4)[Fuc(a1-3)]GlcNAc(b1-3)Gal(b1-4)[Fuc(a1-3)]GlcNAc(b1-3)Gal(b1-4)[Fuc(a1-3)]GlcNAc
In short: as §1

[16] = target: Neu5Ac(a2-3)Gal(b1-4)[Fuc(a1-3)]GlcNAc(b1-3)GalNAc
In short: as §1

[17] = target: Neu5Ac(a2-3)Gal(b1-4)[Fuc(a1-3)]GlcNAc(b1-6)[Gal(b1-3)]GalNAc
In short: as §1

[18] = target: Neu5Ac(a2-3)Gal(b1-4)[Fuc(a1-3)]GlcNAc(b1-6)[Neu5Ac(a2-3)Gal(b1-3)]GalNAc
In short: as §1

[19] = target: Neu5Ac(a2-3)Gal(b1-4)[Fuc(a1-3)]GlcNAc6S
In short: as §1

[20] = target: Neu5Ac(a2-3)Gal6S(b1-4)GlcNAc
In short: as §1

[21] = target: Neu5Ac(a2-3)Gal6S(b1-4)[Fuc(a1-3)]GlcNAc
In short: as §1

Neu5Ac(a2-3)GalNAc = target: Neu5Ac(a2-3)GalNAc
In short: as §1

[22] = target: Neu5Ac(a2-3)GalNAc(b1-4)GlcNAc
In short: as §1

[23] = target: Neu5Ac(a2-3)[GalNAc(b1-4)]Gal(b1-4)Glc
In short: as §1

[24] = target: Neu5Ac(a2-3)[GalNAc(b1-4)]Gal(b1-4)GlcNAc
In short: as §1

[25] = target: Neu5Ac(a2-3)[GalNAc(b1-4)]Gal(b1-4)GlcNAc(b1-3)GalNAc
In short: as §1

[26] = target: Neu5Ac(a2-3)[Neu5Ac(a2-6)]GalNAc
In short: as §1

Neu5Ac(a2-6)Gal = target: Neu5Ac(a2-6)Gal
In short: as §1

[27] = target: Neu5Ac(a2-6)Gal(b1-3)GlcNAc(b1-3)[Gal(b1-4)GlcNAc(b1-6)]Gal(b1-4)Glc
In short: as §1

Neu5Ac(a2-6)Gal(b1-4)Glc = target: Neu5Ac(a2-6)Gal(b1-4)Glc
In short: as §1

[28] = target: Neu5Ac(a2-6)Gal(b1-4)GlcNAc
In short: as §1

[29] = target: Neu5Ac(a2-6)Gal(b1-4)GlcNAc(b1-2)Man(a1-3)Man(b1-4)GlcNAc(b1-4)GlcNAc
In short: as §1

[30] = target: Neu5Ac(a2-6)Gal(b1-4)GlcNAc(b1-2)Man(a1-3)[Gal(b1-4)GlcNAc(b1-2)Man(a1-6)]Man(b1-4)GlcNAc(b1-4)GlcNAc
In short: as §1

[31] = target: Neu5Ac(a2-6)Gal(b1-4)GlcNAc(b1-2)Man(a1-3)[GlcNAc(b1-2)Man(a1-6)]Man(b1-4)GlcNAc(b1-4)GlcNAc
In short: as §1

[32] = target: Neu5Ac(a2-6)Gal(b1-4)GlcNAc(b1-2)Man(a1-3)[GlcNAc(b1-2)Man(b1-4)GlcNAc(b1-2)Man(a1-6)]Man(b1-4)GlcNAc(b1-4)GlcNAc
In short: as §1

[33] = target: Neu5Ac(a2-6)Gal(b1-4)GlcNAc(b1-2)Man(a1-3)[Man(a1-6)]Man(b1-4)GlcNAc(b1-4)GlcNAc
In short: as §1

B1: Eosinophil cationic protein (ECP) (Homo sapiens), P12724 (protein)
chain: MVPKLFTSQICLLLLLGLMGVEGSLHARPPQFTRAQWFAIQHISLNPPRCTIAMRAINNYRWRCKNQNTFLRTTFANVVNVCGNQSIRCPHNRTLNNCHRSRFRVPLLHCDLINPGAQNISNCTYADRPGRRFYVVACDNRDPRDSPRYPVVPVHLDTTI
[1]
  glycan array binding signal (z-score): 0.247
[2]
  glycan array binding signal (z-score): 0.325
[3]
  glycan array binding signal (z-score): 0.316
[4]
  glycan array binding signal (z-score): -0.128
[5]
  glycan array binding signal (z-score): -0.305
[6]
  glycan array binding signal (z-score): -0.428
[7]
  glycan array binding signal (z-score): 0.75
[8]
  glycan array binding signal (z-score): -0.375
[9]
  glycan array binding signal (z-score): 0.24
[10]
  glycan array binding signal (z-score): -0.004
[11]
  glycan array binding signal (z-score): 0.087
[12]
  glycan array binding signal (z-score): -0.048
[13]
  glycan array binding signal (z-score): -0.244
[14]
  glycan array binding signal (z-score): -0.023
[15]
  glycan array binding signal (z-score): -0.251
[16]
  glycan array binding signal (z-score): 1.73
[17]
  glycan array binding signal (z-score): 1.99
[18]
  glycan array binding signal (z-score): 1.04
[19]
  glycan array binding signal (z-score): -0.138
[20]
  glycan array binding signal (z-score): -0.268
[21]
  glycan array binding signal (z-score): 0.109
Neu5Ac(a2-3)GalNAc
  glycan array binding signal (z-score): -0.118
[22]
  glycan array binding signal (z-score): -0.029
[23]
  glycan array binding signal (z-score): -0.187
[24]
  glycan array binding signal (z-score): -0.243
[25]
  glycan array binding signal (z-score): -0.051
[26]
  glycan array binding signal (z-score): -0.286
Neu5Ac(a2-6)Gal
  glycan array binding signal (z-score): -0.316
[27]
  glycan array binding signal (z-score): -0.216
Neu5Ac(a2-6)Gal(b1-4)Glc
  glycan array binding signal (z-score): 0.151
[28]
  glycan array binding signal (z-score): -0.027
[29]
  glycan array binding signal (z-score): -0.443
[30]
  glycan array binding signal (z-score): -0.088
[31]
  glycan array binding signal (z-score): -0.015
[32]
  glycan array binding signal (z-score): -0.216
[33]
  glycan array binding signal (z-score): -0.018
